From article PMC4336329 (PLoS ONE, 2015)
The whole screen tested about 310,000 compounds, of which about 14,000 (4.5%) showed an effect of 50% or more. The effect is printed as a negative number. The list shows a part of the results. Where a SMILES comes first, the peptide text is derived from it. [ ]: non-standard residue; d: D form. ξ: configuration not given here. ξM = CSCCC(N)C(=O)O

Target: human ether-à-go-go-related gene (hERG) potassium channel (human, UniProt Q12809)
Assay: primary screen, population patch clamp on CHO cells stably expressing hERG
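Also: peak tail current of the secondary pulse compared with the same well before compound.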

Chain of human ether-à-go-go-related gene (hERG) potassium channel (Q12809 whole entry, looked up): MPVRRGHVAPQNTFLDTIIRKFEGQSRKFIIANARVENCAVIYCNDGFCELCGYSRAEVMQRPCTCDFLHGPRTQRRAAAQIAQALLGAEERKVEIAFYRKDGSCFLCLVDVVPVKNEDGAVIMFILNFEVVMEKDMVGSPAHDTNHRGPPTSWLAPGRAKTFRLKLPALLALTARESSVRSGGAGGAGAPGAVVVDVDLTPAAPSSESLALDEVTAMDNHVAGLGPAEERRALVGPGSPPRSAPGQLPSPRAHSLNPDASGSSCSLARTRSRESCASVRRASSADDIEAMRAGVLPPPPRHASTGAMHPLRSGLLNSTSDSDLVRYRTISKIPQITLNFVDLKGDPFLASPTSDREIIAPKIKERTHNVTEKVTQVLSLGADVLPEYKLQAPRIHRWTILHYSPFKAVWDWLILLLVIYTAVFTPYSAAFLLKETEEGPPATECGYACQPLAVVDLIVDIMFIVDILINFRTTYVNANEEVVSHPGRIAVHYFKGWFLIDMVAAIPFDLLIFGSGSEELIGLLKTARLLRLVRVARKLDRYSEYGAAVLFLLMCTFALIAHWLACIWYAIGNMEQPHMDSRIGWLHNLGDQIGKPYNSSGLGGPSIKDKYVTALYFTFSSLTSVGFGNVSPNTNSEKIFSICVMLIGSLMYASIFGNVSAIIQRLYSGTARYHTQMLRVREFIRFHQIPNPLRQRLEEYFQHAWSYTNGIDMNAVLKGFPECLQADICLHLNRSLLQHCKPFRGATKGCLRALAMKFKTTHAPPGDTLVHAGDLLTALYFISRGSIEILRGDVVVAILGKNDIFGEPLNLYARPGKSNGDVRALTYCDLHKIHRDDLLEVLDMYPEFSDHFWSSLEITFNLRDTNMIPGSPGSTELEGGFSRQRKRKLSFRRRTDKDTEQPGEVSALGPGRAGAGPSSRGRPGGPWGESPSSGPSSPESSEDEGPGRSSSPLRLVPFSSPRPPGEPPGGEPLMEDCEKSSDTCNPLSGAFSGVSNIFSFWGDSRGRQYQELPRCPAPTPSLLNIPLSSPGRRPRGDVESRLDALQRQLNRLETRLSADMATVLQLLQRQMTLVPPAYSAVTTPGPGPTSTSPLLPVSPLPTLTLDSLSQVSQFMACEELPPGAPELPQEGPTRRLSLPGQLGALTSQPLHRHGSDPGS

Row | SMILES | hERG current change (%, negative = inhibition) at 10uM [%]
1 | O=C(CN1CCC(NC(=O)c2ccc(Br)cc2)CC1)NCc1cccs1 | -49.1
2 | O=S(=O)(c1ccc2c(c1)OCCO2)N1CCC(n2nnc3cc(C(F)(F)F)ccc32)CC1 | -16.4
3 | Cc1c(CCC(=O)NCCCC(=O)O)c(=O)oc2cc3oc4c(c3cc12)CCCC4 | 16.9
4 | CC(C)(C)OC(=O)NCCCC[C@H](NC(=O)c1[nH]cnc1C(=O)Nc1ccccc1)C(=O)OC(C)(C)C | 15.6
5 | COc1ccc(CN2CCN(C(C)C)C(CCO)C2)cc1Cn1cccn1 (stereo not shown) | 8.43
6 | COC(=O)c1ccc(CN2CCCC(C(=O)Nc3ccc(-c4ccn[nH]4)cc3)C2)cc1 (stereo not shown) | 3.46
7 | CCN1C(=NCCOC)N[C@@H](c2cccc(F)c2)C(C(=O)OC)=C1C | -14.3
8 | Cc1ccccc1NC(=O)Nc1cc(-c2ccccc2)nn1C | 2.31
9 | Nc1nonc1N1CCCCC1 | 9.12
10 | O=C(O)c1cccc(Nc2ncnc3ccc(Br)cc23)c1 | -1.55
11 | CCn1cc(C(=O)OCC(=O)Nc2ccc(C(C)C)cc2)c(=O)c2ccc(C)nc21 | 12.4
12 | CN(C)CCN(C(=O)c1ccc(N2C(=O)CCC2=O)cc1)c1nc2cc3c(cc2s1)OCO3.Cl | 0.227
13 | Cc1ccc(-c2nnnn2-c2ccc(C)cc2)cc1 | -9.64
14 | CCOC(=O)CSc1nc(C)c2ccc(C)cc2n1 | 3.42
15 | Cc1nc2cc(NC(=O)NC3CC3)ccc2n1C | 18.9
16 | CCOc1cc(/C=N/Nc2nc(-c3cccs3)c(NC(C)=O)s2)ccc1O | -9.55
17 | N#Cc1cc2c(nc1SCc1cccnc1)CCCC2 | -7.04
18 | COc1ccccc1OCC(=O)N1CCN(Cc2ccc3c(c2)OCO3)CC1 | -29.3
19 | Fc1cccc(F)c1/C=N/N1CCOCC1 | 3.33
20 | COC(=O)CNC(=O)C(CCSC)NC(C)=O (stereo not shown) (Ac-[ξM]-Gly-OMe) | 26.5
21 | Cc1ccccc1N1CC2=C(C1=O)C(c1ccccc1)NC(=O)N2C (stereo not shown) | -3.43
22 | Cc1cc(N2CCN(C)CC2)n2nc(-c3ccc(Cl)cc3)nc2n1 | -77.3
23 | Cc1ccc(CN2CCN(/N=C/c3sccc3C)CC2)c(C)c1 | -14.1

Row | SMILES | hERG current change (%, negative = inhibition) at 10uM [%]
24 | O=C(CNS(=O)(=O)c1ccccc1)Nc1ccccc1Br | 2.86
25 | O=C(Cn1cc([N+](=O)[O-])ccc1=O)Nc1ccc2c(c1)OCO2 | -4.94
26 | COC(=O)CNC(c1ccccc1)c1cc(Br)ccc1N (stereo not shown) | -12.4
27 | COc1ccc(OC)c(NC(=O)CSc2nnc(CNC(=O)c3ccccc3F)o2)c1 | -3.87
28 | CC(C)(C)C(=O)Nc1sc2c(c1C(=O)Nc1ccccn1)CCCC2 | -9.5
29 | COC(=O)c1ccc(NC(=O)C2CCCO2)cc1 (stereo not shown) | 2.85
30 | O=c1ccn(Cc2ccccc2)c2ccccc12 | -0.762
31 | CCn1c(CNc2ccc(F)cc2)nnc1SCCN1CCCCC1 | -12.1
32 | O=C1CC(N2CCC(O)(c3ccc(Br)cc3)CC2)C(=O)N1c1ccc(Cl)cc1 (stereo not shown) | -30.5
33 | Cc1ccc(CN2CCN(/N=C/C(Br)=C\c3ccccc3)CC2)cc1 | -3.15
34 | C/C(N)=C(/C#N)C(=O)COC(=O)c1cc(-c2ccccc2)nc2ccc(Br)cc12 | 10.6
35 | COc1ccc(CCn2c(C3CCCCC3)nc3c(c(=O)c4ccccc4n3C)c2=O)cc1OC | -8.08
36 | CC/C(=N\NC(N)=O)c1ccc(OC(F)F)cc1 | -12.5
37 | CCOC(=O)CC(=O)NC(C)(C)CCCCC(C)(C)NC(=O)CC(=O)OCC | 20.5
38 | Cc1ccc(OCc2cc(C(=O)NCc3ccc(OC(F)(F)F)cc3)no2)cn1 | -5.13
39 | COc1ccc(/C=C/C(=O)O)cc1COc1cccc(C)c1 | 4.41
40 | Cc1cc2nncn2c2ccccc12 | 12.9
41 | Cc1nn(CC(=O)NCc2cc3ccccc3[nH]2)c(C)c1[N+](=O)[O-] | 11.8
42 | CSc1ccccc1OCc1cc(C(=O)N2CCc3[nH]cnc3C2c2ccccn2)no1 (stereo not shown) | -4
43 | Cc1cccc(NC(=O)N2CCC(C(=O)c3ccc(F)cc3)CC2)c1 | -40.6
44 | COc1ccc(C2NC(=O)NC(C)=C2C(=O)OCC2CCCCC2)cc1OC (stereo not shown) | -2.11
45 | C/C(=N/Oc1nc(C)cc(C)n1)c1ccc(Cl)cc1Cl | -11
46 | C/C(=N\Nc1ccccn1)c1ccc(N2CCOCC2)cc1 | -1.69

Row | SMILES | hERG current change (%, negative = inhibition) at 10uM [%]
47 | C/C(=N\NC(=O)c1c(Cl)cnn1C)c1cccc(NC(=O)c2ccc(C)cc2)c1 | 1.67
48 | NC(=O)c1ccsc1NC(=O)CCc1ccccc1 | 8.34
49 | COCCNC(=S)Nc1ccc(S(=O)(=O)Nc2ncccn2)cc1 | 10.1
50 | CCN1C(=S)N[C@@H](c2ccccc2)C(C(=O)OC)=C1C | 14.8
51 | O=C(CCN1C(=O)COc2ccccc21)NCCN1CCc2ccccc2C1 | -35.1
52 | CC(C(=O)NCc1ccccc1)n1cc([N+](=O)[O-])cn1 (stereo not shown) | -8.6
53 | COc1ccc(CCn2c(C)c(C(C)=O)c(C(C)=O)c2C)cc1OC | 6.86
54 | COc1cc(C(=O)NCCC(=O)NCCCN2CCCCC2)cc(OC)c1OC | -5.84
55 | COc1ccc(NC(=O)Nc2cnccn2)c(OC)c1 | -26.3
56 | CCn1cc(/C=C(\NC(=O)c2ccccc2F)C(=O)NCCN2CCOCC2)c2ccccc21 | -2.31
57 | Cc1nn(CC(=O)Nc2ccc(N3CCOCC3)cc2)c(C)c1Br | 4.46
58 | CCCS(=O)(=O)N1CCCC(C(=O)NCCN(CC)c2ccccc2)C1 (stereo not shown) | -11.3
59 | CC(CC(=O)Nc1ccc(Br)cc1F)S(=O)(=O)c1ccc2c(c1)NC(=O)CO2 (stereo not shown) | -30.2
60 | O=C(O)C(S)C(S)C(=O)O (stereo not shown) | 14.5
61 | Cc1ccc2nc(Cl)c(C3CC(c4cccs4)=NN3C(=O)CCCC(=O)O)cc2c1 (stereo not shown) | 14.2
62 | COCCN=c1scc(C)n1/N=C/C1CC2C=CC1C2 (stereo not shown) | -55
63 | NC1=NC(=O)C(CC(=O)Nc2ccc3c(c2)OCO3)S1 (stereo not shown) | 1.22
64 | O=C(CCCn1cnc([N+](=O)[O-])n1)Nc1ccc(F)c(Cl)c1 | -9.52
65 | CC(=O)N1CCN(c2nc3ccc(Br)cc3s2)CC1 | -49.4
66 | CCOC(=O)CNc1nc(C(C)(C)C)nc2c1nnn2Cc1ccccc1Cl | 9.44
67 | Cc1cnc(NC(=O)CC2CCCC2)s1 | 21.5
68 | COCCCNC(=O)/C(C#N)=C/c1c(N2CCN(c3ccccc3)CC2)nc2ccccn2c1=O | -20.3
69 | CCCc1cc(CNC(=O)C2CCC(=O)N(Cc3ccccc3OC)C2)on1 (stereo not shown) | 10.1

Row | SMILES | hERG current change (%, negative = inhibition) at 10uM [%]
70 | COC(=O)c1c(C)nc2c(c(SC)nn2-c2ccccc2)c1N | 6.32
71 | N#C/C(=C\c1ccc(O)c(Br)c1)C(=O)NCc1ccccc1 | -0.941
72 | CC(C)(C)OC(=O)Nc1ccc([C@H](NC(=O)OC(C)(C)C)C(=O)OC(C)(C)C)cc1 | 6.47
73 | CC1CCCCC1NC(=O)c1cccc(N2C(=O)C3C4C=CC(C4)C3C2=O)c1 (stereo not shown) | 8.28
74 | Cc1cccnc1NC(=O)C1c2ccccc2Oc2ccccc21 | -5.44
75 | Cc1cc(S(=O)(=O)N2c3ccc(F)cc3CCC2C)ccc1-n1cnnn1 (stereo not shown) | 6.53
76 | O=C(O)c1ccccc1SCCS(=O)(=O)c1ccc(Cl)cc1Cl | 7.72
77 | CC(C)N1CCC(N2CCN(Cc3nc4ccccc4s3)CC2CCO)CC1 (stereo not shown) | -33.4
78 | Fc1ccc(NC(=S)Nc2ccc(F)c(Cl)c2)cc1Cl | 5.59
79 | O=C(c1ccc(CS(=O)(=O)c2ccc(Br)cc2)o1)N1CCN(c2ccc(F)cc2)CC1 | 6.91
80 | Cc1ccc(COc2ccc(/C=N/O)cc2)cc1 | 16.6
81 | CCOC(=O)c1c(C)[nH]c(NC(=O)Nc2c(C)n(C)n(-c3ccccc3)c2=O)c1C | 14.8
82 | OCCNC(=S)c1ccccc1 | 18.3
83 | COC(=O)CCSc1cc([N+](=O)[O-])cc2c1c(C1OCCS1)nn2-c1ccccc1 (stereo not shown) | 3.61
84 | CCOC(=O)C1C(=O)C=C(/C=C/c2ccccc2)CC1c1ccc(Cl)cc1 (stereo not shown) | -0.716
85 | CC(C)OC(=O)c1ccc(COc2ccc3ccc(=O)oc3c2)o1 | -35.7
86 | O=C(CSc1ccccn1)Nc1cccc2ccccc12 | 8.26
87 | Cc1cccc(C(=O)NC(C(=O)Nc2cccc(S(=O)(=O)N3CCCC3)c2)C(C)C)c1 (stereo not shown) | 10.1
88 | Cc1ccc2nc(-c3ccc4c(c3)OCCO4)cn2c1 | -16
89 | N#Cc1ccccc1CSc1nc(N)cc(N)n1 | 10.5
90 | CCNS(=O)(=O)c1c(C)cc(N2CCCC2=O)cc1C | 6.32
91 | Cc1nc([N+](=O)[O-])c(C(=O)OCc2ccc(C#N)cc2)n1C | -33.8
